Measured values taken from PubChem BioAssay AID1347430 (National Center for Advancing Translational Sciences (NCATS), 2020).
Among all 91,000 compounds or so, about 130 (0.14%) were called active. The shares of active, inactive and inconclusive entries below differ from those in the screen. The call rests on the fitted dose curve; in most records, active means well fitted inhibition curve with a large enough effect; inconclusive means small, poorly fitted or top-dose-only effect; inactive means flat fitted curve, though single readings scatter. Potencies beside an inconclusive call are fits to weak or partial responses and may not hold up.

system: Uracil-DNA glycosylase; assay: Primary qHTS assay for inhibitors of Activation Induced Cytidine Deaminase (AID): UDG Counterscreen signal; conditions: FRET deamination/UDG coupled assay, UDG read, 4 h; activity change, negative = inhibition: at 115 µM (top of the series); further: nearly all actives have a fitted effect of over 65% in size
On the % scale 0 is the no-effect control and ±100 the full control effect; potency means the concentration at half of the fitted maximal effect; tags describe the fitted curve by direction and shape.

For `O=C(CSc1nc(-c2ccc(F)cc2)nc2c1Cc1ccccc1O2)Nc1cccc(C(=O)O)c1`, which “activity change, negative = inhibition” value is on record?
The value was inactive: -0.469%.

Which Potency does the source give for `CC(=O)N1CCc2c(sc3c2c(=O)n(-c2ccccc2C)c(=O)n3CC(=O)c2ccccc2)C1` here?
Its Potency is inconclusive: 89.1 µM [inhibitor, partial curve, poor fit].

For `COc1cccc(C2=C(C(C)=O)Sc3nnc(-c4ccc(Cl)cc4)n3N2C(C)=O)c1`, which Potency is on record?
Its Potency is inconclusive: 89.1 µM [inhibitor, single point].

For `COc1ccc(-c2cc(-c3ccccc3)c(C#N)c(SCC(O)CS(=O)(=O)Cc3ccccc3)n2)cc1` (configuration not stated), which Potency is on record?
Its Potency is inconclusive: 100 µM [inhibitor, partial curve, poor fit].

Which Potency does the source give for `Clc1ccc(Cl)c(-c2nn3c(CN4CCOCC4)nnc3s2)c1` here?
The Potency was inconclusive: 89.1 µM [inhibitor, single point].

Which Potency does the source give for `CCOC(=O)c1c(C)[nH]c(C)c1S(=O)(=O)N1CCC(C(=O)N2CCN(c3cccc(C)c3C)CC2)CC1` here?
The Potency was inconclusive: 100 µM [inhibitor, single point].

How did the “activity change, negative = inhibition” value turn out when `O=C(c1ccc(-n2cnnn2)cc1)N(CCc1cccs1)Cc1cccs1` was run?
The value was inactive: -0.837%.

`CCCN(CCC)CC(O)Cn1cc(/C=C/C(=O)c2ccc(OC)cc2)c2ccccc21` (configuration not stated) was tested. Which “activity change, negative = inhibition” value did it give?
Its value is inactive: -20.5%.

For `COc1ccc(OCCn2nnc3sc4c(c3c2=O)CCC(C(C)(C)C)C4)cc1` (configuration not stated), which Potency is on record?
Its Potency is inconclusive: 31.6 µM [inhibitor, full curve, poor fit].

Which Potency does the source give for `CCOc1ccc(-c2c(C)nn3c(C)c(C(=O)NCc4ccc(Cl)cc4)cnc23)cc1OCC` here?
Its Potency is inconclusive: 25.1 µM [inhibitor, partial curve, poor fit].

How did the Potency turn out when `Cc1ccc(-c2cc(C(=O)OCC(=O)c3ccccc3)c3cccc(Cl)c3n2)cc1` was run?
The Potency was inconclusive: 100 µM [inhibitor, single point].

`COc1ccc(-c2noc(-c3ccc(C)cc3Cl)n2)cc1OC` was tested. Which Potency did it give?
The Potency was inconclusive: 2.82 µM [inhibitor, partial curve, poor fit].

Which “activity change, negative = inhibition” value does the source give for `C=CCNS(=O)(=O)c1ccc(C(=O)O)cc1` here?
Its value is inactive: 9.54%.

Which “activity change, negative = inhibition” value does the source give for `COc1cccc2cc(C(=O)Nc3ccccc3Oc3ccccc3)c(=O)oc12` here?
The value was inactive: 2.18%.

With `Cc1nc2nc(SCC(=O)NCCc3ccc(Cl)cc3)nn2c(C)c1Cc1ccccc1Cl` as the compound, how does the “activity change, negative = inhibition” value read?
Its value is inactive: -29.8%.

With `CN1C(=O)Cc2cc(S(=O)(=O)CCC(=O)Nc3ccc(OC(F)(F)F)cc3)ccc21` as the compound, how does the Potency read?
Its Potency is inconclusive: 56.2 µM [inhibitor, partial curve, poor fit].

How did the Potency turn out when `CCOc1ccc(OC(=O)c2c(-c3ccccc3Cl)noc2C)cc1` was run?
Its Potency is inconclusive: 79.4 µM [inhibitor, single point].

How did the “activity change, negative = inhibition” value turn out when `CC(O)C(NC(=O)c1cc(Cl)ccc1F)C(=O)O` (configuration not stated) was run?
The value was inactive: -3.45%.

`Clc1cc(Cl)cc(CNCCN2CCCC2)c1` was tested. Which “activity change, negative = inhibition” value did it give?
The value was inactive: -4.23%.

Which Potency does the source give for `CCOc1ccc(-c2nnc(SCC(=O)c3ccccc3)n2-c2ccccc2)cc1` here?
Its Potency is inconclusive: 89.1 µM [inhibitor, single point].

How did the Potency turn out when `Cc1ccc(NC(=O)c2ncoc2-c2ccco2)cc1Cl` was run?
The Potency was inconclusive: 79.4 µM [inhibitor, partial curve].

With `N#Cc1ccccc1NC(=O)c1ccccc1Oc1ccccc1` as the compound, how does the “activity change, negative = inhibition” value read?
The value was inactive: 0.262%.

For `O=S(=O)(O)CC(S)CS` (configuration not stated), which Potency is on record?
Its Potency is inconclusive: 8.91 µM [inhibitor, full curve].

For `COc1cc(CCNC(=O)c2ccc3c(c2)c(C)c(C)n3Cc2cccc(C)c2)cc(OC)c1OC`, which Potency is on record?
The Potency was inconclusive: 79.4 µM [inhibitor, partial curve].

With `COc1ccccc1Oc1c(C)oc2cc(OC(=O)c3ccc4c(c3)OCO4)ccc2c1=O` as the compound, how does the “activity change, negative = inhibition” value read?
The value was inactive: 12.7%.

With `COc1ccc(-c2cc(=O)c3cc(OCC(=O)OC(C)C)ccc3o2)cc1` as the compound, how does the Potency read?
The Potency was inconclusive: 79.4 µM [inhibitor, single point].

How did the Potency turn out when `Nc1cccc2ccc(C(=O)O)nc12` was run?
The Potency was inconclusive: 44.7 µM [inhibitor, partial curve, poor fit].

`O=C(Cn1c(=O)n(Cc2cccs2)c(=O)c2cccnc21)Nc1ccc(F)cc1` was tested. Which Potency did it give?
The Potency was inconclusive: 100 µM [inhibitor, single point].

With `Cc1nc2ccccc2c(=O)n1-c1ccc(NC(=O)c2cccc([N+](=O)[O-])c2)cc1` as the compound, how does the Potency read?
Its Potency is inconclusive: 100 µM [inhibitor, single point].

With `COc1ccccc1CCNC(=O)c1ccc(-c2nc(CSc3ccc(C)cc3)c(C)o2)cc1` as the compound, how does the Potency read?
The Potency was inconclusive: 31.6 µM [inhibitor, partial curve, poor fit].

Which Potency does the source give for `COCCNC(=O)CSc1nc(-c2cc(OC)c(OC)c(OC)c2)[nH]c1-c1ccc(Cl)cc1` here?
The Potency was inconclusive: 89.1 µM [inhibitor, single point].

`Cc1ccc(Cl)cc1NC(=O)Nc1nnc(N(C)Cc2ccccc2)s1` was tested. Which Potency did it give?
Its Potency is active: 89.1 µM.

`Cc1ccc(CN(C(=O)c2ccccc2)c2ccccn2)o1` was tested. Which Potency did it give?
The Potency was inconclusive: 100 µM [inhibitor, single point].

With `CC(=O)c1cccc(NC(=O)c2nc(-c3ccccc3)n(-c3cccc(Cl)c3)n2)c1` as the compound, how does the Potency read?
The Potency was inconclusive: 89.1 µM [inhibitor, single point].

How did the Potency turn out when `CCN1CCN(C(c2ccc(OC)cc2)c2c(O)cc(C)n(Cc3ccco3)c2=O)CC1` (configuration not stated) was run?
The Potency was inconclusive: 89.1 µM [inhibitor, single point].

Which Potency does the source give for `O=S(=O)(Nc1nc2ccccc2nc1NCc1ccccc1)c1cccs1` here?
Its Potency is inconclusive: 89.1 µM [inhibitor, single point].

`COc1ccc(OCC(=O)Nc2cc(-c3ccccc3F)nn2-c2ccccc2)cc1` was tested. Which Potency did it give?
Its Potency is inconclusive: 89.1 µM [inhibitor, single point].

`CCOC(=O)C1CCN(S(=O)(=O)c2cc3c4c(c2)CC(=O)N4CCC3)CC1` was tested. Which Potency did it give?
The Potency was inconclusive: 89.1 µM [inhibitor, single point].

`COc1cc(/C=C/c2nc(C#N)c(N(C)C)o2)cc(OC)c1OC` was tested. Which “activity change, negative = inhibition” value did it give?
Its value is inactive: -10%.

How did the Potency turn out when `CCOc1ccccc1CNCCNC(=O)c1nonc1N` was run?
The Potency was inconclusive: 89.1 µM [inhibitor, single point].

Which Potency does the source give for `COc1ccccc1N1CCN(C(=O)C2CCN(S(=O)(=O)Cc3ccccc3)CC2)CC1` here?
The Potency was inconclusive: 100 µM [inhibitor, single point].

How did the Potency turn out when `Cc1cc2c(cc1NC(=O)c1ccccc1C)n(C)c(=O)c(=O)n2C` was run?
The Potency was inconclusive: 79.4 µM [inhibitor, single point].
